Source: the supplement of paper PMC11880418
Structures can show the parent of a compound that is named as a salt. Some of the results follow. The data scatter; read single values as rough.
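Note: High-content imaging of ALDEFLUOR-stained cells with Hoechst-labelled nuclei in 384-well plates, triplicate wells, scored as Z-score against 0.1% DMSO vehicle, negative meaning fewer ALDHbr cells.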

What follows are compounds tested on PANC1 (assay: ALDHbr (CSC) cell proportion score relative to DMSO vehicle (ratio to DMSO); breast (SUM159) / gastric (MKN45) / pancreatic (PANC1) / colon cancer lines; ALDHbr cells have high ALDH activity and are rich in cancer stem cells (CSC); higher = more CSC (ALDHbr) cells remaining). Conditions: 10 µM; 72 h.
`N=C(N)NCCN1CCCCCCC1` [Guanethidine sulfate] was tested, and the ALDHbr was 0.782.
`CC(=O)Nc1nnc(S(N)(=O)=O)s1` [Acetazolamide] was tested, and the ALDHbr was 0.868.
With `CCCc1nc2c(C)cc(-c3nc4ccccc4n3C)cc2n1Cc1ccc(-c2ccccc2C(=O)O)cc1` [Telmisartan] the ALDHbr was 0.874.
`NS(=O)(=O)c1cc2c(cc1Cl)N=C(CSCc1ccccc1)NS2(=O)=O` [Benzthiazide] showed an ALDHbr of 0.804.
`COc1cc(C(=O)N2CCOCC2)cc(OC)c1OC` [Trimetozine] was tested, and the ALDHbr was 0.961.
Compound `O=C1CN2Cc3c(ccc(Cl)c3Cl)N=C2N1` [Anagrelide] has an ALDHbr of 0.657.
For `CN1CCCN(C(c2ccccc2)c2ccc(Cl)cc2)CC1` (centres undefined) [Homochlorcyclizine dihydrochloride], the ALDHbr was 0.934.
For `CC(=O)OCC1=C(C(=O)O)N2C(=O)[C@@H](NC(=O)Cc3cccs3)[C@H]2SC1` [Cephalothin sodium salt], the ALDHbr was 0.806.
`CC[N+](C)(CC)CCC[n+]1c(-c2ccccc2)c2cc(N)ccc2c2ccc(N)cc21` [Propidium iodide] showed an ALDHbr of 0.935.
In the case of `O=C(c1ccc(OCCN2CCCCC2)cc1)c1c(-c2ccc(O)cc2)sc2cc(O)ccc12` [Raloxifene hydrochloride], the ALDHbr is reported as 0.772.
`CO/N=C(\C(=O)N[C@@H]1C(=O)N2C(C(=O)O)=C(COC(C)=O)CS[C@H]12)c1csc(N)n1` [Cefotaxime sodium salt] showed an ALDHbr of 0.9.
`COc1ccc(NS(=O)(=O)c2ccc(N)cc2)nn1` [Sulfamethoxypyridazine] showed an ALDHbr of 1.05.
In the case of `CCn1cc(C(=O)O)c(=O)c2cc(F)c(N3CCNCC3)nc21` [Enoxacin], the ALDHbr is reported as 1.01.
Work on `CN(C)[C@@H]1C(=O)C(C(N)=O)=C(O)[C@@]2(O)C(=O)C3=C(O)c4c(O)ccc(Cl)c4[C@@H](O)[C@H]3C[C@@H]12` [Demeclocycline hydrochloride] yielded an ALDHbr of 0.49.
`Cc1oncc1C(=O)Nc1ccc(C(F)(F)F)cc1` [Leflunomide] was tested, and the ALDHbr was 0.967.
Compound `CC(=O)Nc1c(I)c(C(=O)N[C@H]2C(O)O[C@H](CO)[C@@H](O)[C@@H]2O)c(I)c(N(C)C(C)=O)c1I` (some centres undefined) [Metrizamide] has an ALDHbr of 1.01.
With `CCCN1CCCC[C@H]1C(=O)Nc1c(C)cccc1C` [Ropivacaine hydrochloride] the ALDHbr was 0.936.
`NC[C@@H]1O[C@H](O[C@H]2[C@@H](O)[C@H](O[C@@H]3[C@@H](O)[C@H](N)C[C@H](N)[C@H]3O[C@H]3O[C@H](CO)[C@@H](O)[C@H](O)[C@H]3N)O[C@@H]2CO)[C@H](N)[C@@H](O)[C@@H]1O` [Paromomycin sulfate] gave an ALDHbr of 0.848.
Compound `CN(C)CCCOc1nn(Cc2ccccc2)c2ccccc12` [Benzydamine hydrochloride] has an ALDHbr of 0.84.
`CN(C)/N=N/c1[nH]cnc1C(N)=O` [Dacarbazine] was tested, and the ALDHbr was 0.873.
`CN(N=O)C(=O)N[C@H]1C(O)O[C@H](CO)[C@@H](O)[C@@H]1O` (mixture of isomers) [Streptozotocin] gave an ALDHbr of 0.912.
`COc1cc(-c2ccc(N=Nc3ccc4c(S(=O)(=O)O)cc(S(=O)(=O)O)c(N)c4c3O)c(OC)c2)ccc1N=Nc1ccc2c(S(=O)(=O)O)cc(S(=O)(=O)O)c(N)c2c1O` [Chicago sky blue 6B] was tested, and the ALDHbr was 0.736.
`COc1ccccc1OCC(O)CN1CCN(CC(=O)Nc2c(C)cccc2C)CC1` (centres undefined) [Ranolazine] gave an ALDHbr of 0.927.
`Cc1ccc(C(=O)c2ccc(CC(=O)O)n2C)cc1` [Tolmetin sodium salt dihydrate] was tested, and the ALDHbr was 0.891.
In the case of `C#C[C@]1(O)CC[C@H]2[C@@H]3CCC4=CC(=O)CC[C@@H]4[C@H]3CC[C@@]21C` [Norethindrone], the ALDHbr is reported as 0.717.
With `CC(C)(C)NC[C@H](O)COc1nsnc1N1CCOCC1` [Timolol maleate salt] the ALDHbr was 0.861.
In the case of `NS(=O)(=O)c1cc(Cl)c(Cl)c(S(N)(=O)=O)c1` [Dichlorphenamide], the ALDHbr is reported as 0.909.
Work on `CC(Oc1ccccc1)C(=O)N[C@@H]1C(=O)N2[C@@H]1SC(C)(C)[C@@H]2C(=O)O` (some centres undefined) [Phenethicillin potassium salt] yielded an ALDHbr of 0.934.
Compound `COC(=O)C1=C(C)NC(C)=C(C(=O)OCCN(C)Cc2ccccc2)C1c1cccc([N+](=O)[O-])c1` (centres undefined) [Nicardipine hydrochloride] has an ALDHbr of 0.67.
`CC(C(=O)O)c1ccc2c(c1)Cc1cccnc1O2` (centres undefined) [Pranoprofen] showed an ALDHbr of 0.707.
`Cn1c(=O)c2nc[nH]c2n(C)c1=O` [Theophylline monohydrate] gave an ALDHbr of 0.956.
For `CNCCCC1c2ccccc2C=Cc2ccccc21` [Protriptyline hydrochloride], the ALDHbr was 0.914.
For `C[C@]12CCC(=O)C=C1C=C[C@@H]1[C@@H]2CC[C@@]2(C)[C@H]1CC[C@@]21CCC(=O)O1` [Canrenone], the ALDHbr was 0.837.
With `NC(CO)C(=O)NNCc1ccc(O)c(O)c1O` (centres undefined) [Benserazide hydrochloride] the ALDHbr was 0.869.
`CC(=O)OCC(=O)[C@@]12N=C(C)O[C@@H]1C[C@H]1[C@@H]3CCC4=CC(=O)C=C[C@]4(C)[C@H]3[C@@H](O)C[C@@]12C` [Deflazacort] was tested, and the ALDHbr was 0.677.
Work on `CCCCc1nc(Cl)c(CO)n1Cc1ccc(-c2ccccc2-c2nnn[nH]2)cc1` [Losartan] yielded an ALDHbr of 0.875.
For `O=c1[nH]c(=O)n([C@H]2C[C@H](O)[C@@H](CO)O2)cc1I` [Idoxuridine], the ALDHbr was 1.36.
`Nc1ccc(O)c(C(=O)O)c1` [Mesalamine] was tested, and the ALDHbr was 0.941.
Compound `C[C@@H]1[C@H](O)[C@@H](C)/C=C/C=C/C=C/C=C/C=C/C=C/C=C/[C@H](O[C@@H]2O[C@H](C)[C@@H](O)[C@H](N)[C@@H]2O)C[C@@H]2O[C@](O)(C[C@@H](O)C[C@@H](O)[C@H](O)CC[C@@H](O)C[C@@H](O)CC(=O)O[C@H]1C)C[C@H](O)[C@H]2C(=O)O` [Amphotericin B] has an ALDHbr of 0.674.
